The source of these data is the antibiotic and cytotoxicity screens of Wong et al. (2023).

Each structure is given as a SMILES string. The list shows a part of the results.

The test system of one assay is HSkMC. Nature of the assay: cytotoxicity call (relative viability < 0.9). The following applies: 10 µM.
For the next assay, the system named is HepG2. Nature of the assay: cytotoxicity call (relative viability < 0.9). The following applies: 10 µM.
The subject of the next assay is S. aureus RN4220. Briefly: growth inhibition call (relative growth <= 0.2). As to conditions: 50 µM.

As to `Cc1cc(C(C)(C)C)c(O)c(C)c1CC1=NCCN1.Cl`, the cytotoxicity call in the assay on HSkMC and in the assay on HepG2 was “inactive” each time. Further, the growth inhibition call in the assay with S. aureus RN4220 was “inactive”.

For the molecule `COc1ccc([Si](C)(C)[C@@H]2[C@@H](CCn3cc([C@H](O)c4ccccc4)nn3)O[C@]3(C(=O)N(Cc4ccc(N5CCOC5=O)cc4)c4ccccc43)[C@H]2C)cc1`, the cytotoxicity call with HSkMC and in the assay on HepG2 was “inactive” throughout. Besides, in the assay with S. aureus RN4220, the growth inhibition call is “inactive”.

Regarding `C[C@@H]1CCCCO[C@H](CN(C)CC2CCCCC2)[C@H](C)CN([C@H](C)CO)C(=O)c2cc(NC(=O)NC3CCCCC3)ccc2O1`, the cytotoxicity call with HSkMC is “inactive”. Moreover, in the assay with HepG2, the cytotoxicity call is “active”. Moreover, the growth inhibition call in the assay on S. aureus RN4220 was “inactive”.

Take `N#Cc1cnc2c(C(N)=O)cnn2c1N`: the cytotoxicity call with HSkMC and in the assay with HepG2 was “inactive” throughout. Moreover, in the assay with S. aureus RN4220, the growth inhibition call is “inactive”.

Consider `C[C@@H]1CN([C@@H](C)CO)C(=O)c2cc(NC(=O)Cc3ccccc3)ccc2O[C@@H](C)CCCCO[C@@H]1CN(C)S(=O)(=O)c1ccc(F)cc1`, for which the cytotoxicity call in the assay on HSkMC and with HepG2 was “inactive” each time. Also, the growth inhibition call in the assay on S. aureus RN4220 is “inactive”.

On to `COc1nc(=NC(=O)NS(=O)(=O)Nc2cccc3cccnc23)nc(OC)[nH]1`, for which the cytotoxicity call with HSkMC and in the assay on HepG2 was “active” each time. In the assay on S. aureus RN4220, the growth inhibition call was “inactive”.

`CN(C)CCCNC(=O)C[C@@H]1CC[C@H]2[C@@H](COc3ccc(NC(=O)c4ccc5c(c4)OCO5)cc3C(=O)N2C)O1`: the cytotoxicity call in the assay with HSkMC and in the assay on HepG2 was “inactive” each time. Moreover, in the assay with S. aureus RN4220, the growth inhibition call was “inactive”.

As to `C[C@@H]1CN([C@H](C)CO)C(=O)c2cc(/C=C/c3ccccc3)cnc2O[C@H]1CN(C)C(=O)C1CCOCC1`, the cytotoxicity call in the assay on HSkMC (human skeletal muscle cells) and in the assay on HepG2 was “inactive” throughout. The growth inhibition call in the assay with S. aureus RN4220 is “inactive”.

As to `C=CCOC(=O)[C@@H]1[C@H]2C(=O)O[C@H](c3ccccc3)[C@H](c3ccccc3)N2[C@H](c2ccc(OCCOC(=O)[C@@H]3C[C@@H]4C(=O)NCC(=O)N4[C@@H]3c3ccc(O)cc3)cc2)[C@@]12C(=O)Nc1ccccc12`, the cytotoxicity call in the assay with HSkMC and with HepG2 was “inactive” each time. For the same molecule, in the assay on S. aureus RN4220, the growth inhibition call is “inactive”.
